{"source": "PubChem BioAssay AID485297", "about": "(National Center for Advancing Translational Sciences (NCATS), 2010)", "note": "About 9,100 (2.8%) of roughly 320,000 compounds were called active. Inconclusive means that the source gave no clear call. Such entries were picked first, then a sample of the others. The call rests on the fitted dose curve; in most records, active means well fitted activation curve with a large enough effect; inconclusive means small, poorly fitted or top-dose-only effect; inactive means no such curve, though single readings can be large or run the other way. Potencies of inconclusive entries are left out as doubtful fits. Potency means the concentration at half of the fitted maximal effect; tags describe the fitted curve by direction and shape.", "data": [{"assay": "qHTS Assay for Rab9 Promoter Activators; further: nearly all actives have a fitted effect of over 60% in size", "conditions": "Huh7 Rab9 promoter-luciferase reporter, luminescence, 24 h; series mostly up to 9.22 µM", "summary_of_the_method": "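Rab9 promoter-driven luciferase in stably transfected Huh7 cells; 1500 cells/well rested 2 h, exposed to compound in DMSO for 24 h at 37 °C, 5% CO2. Luminescence read 10 min after adding luciferase reagent at ambient temperature.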", "values": [{"smiles": "Cn1nc(-c2ccccc2)c(C#N)c1Sc1cccc(Cl)c1", "Potency": "inactive"}, {"smiles": "CN1C(=O)/C(=C\\c2ccc(-c3ccccc3)o2)SC1=S", "Potency": "inconclusive [activator, single point]"}, {"smiles": "CCCN=C(C)C1=C(O)c2ccccc2C1=O", "Potency": "inconclusive [activator, partial curve]"}, {"smiles": "COc1ccc2[nH]c(C(=O)Nc3ncc(C)cc3Br)cc2c1", "Potency": "inactive"}, {"smiles": "NNc1ccc2c(C(F)(F)F)cc(C(F)(F)F)nc2n1", "Potency": "inconclusive [activator, single point]"}, {"smiles": "Cc1ccc(NC(=O)NCc2cccn2C)cc1C", "Potency": "inconclusive [activator, partial curve]"}, {"smiles": "Cc1ccc(OCc2cc(C(=O)N3CCC(c4ccccc4Cl)C3)no2)cc1C", "note": "(stereo unspecified)", "Potency": "inconclusive [activator, full curve]"}, {"smiles": "Nc1c(C(=O)Nc2ccc3c(c2)OCCO3)nnn1Cc1ccc(F)cc1", "Potency": "active: 2.24 µM"}, {"smiles": "Cc1nc(Nc2ccccc2)sc1C(=O)c1ccc(F)cc1", "Potency": "inconclusive [activator, partial curve]"}, {"smiles": "Cc1cc(NC(=O)c2ccco2)sc1C", "Potency": "active: 2 µM"}, {"smiles": "CSc1ccc(CNC(=O)Cc2ccc(NC(=O)C3=C(C)OCCS3)cc2)cc1", "Potency": "inconclusive [activator, partial curve]"}, {"smiles": "COc1cc(/C=N/Nc2nc3ccccc3[nH]2)cc(OC)c1O", "Potency": "inactive"}, {"smiles": "CC(=O)Nc1cc(-c2ccc(Cl)cc2)[nH]n1", "Potency": "inconclusive [activator, partial curve]"}, {"smiles": "Cc1cc(C(=O)CSc2nc3ccccc3[nH]2)c(C)n1Cc1ccco1", "Potency": "active: 0.501 µM"}, {"smiles": "COc1ccc(CN(C)C(=O)c2cc(-c3ccccc3)nc3ccc(C)cc23)c(OC)c1OC", "Potency": "inconclusive [activator, single point]"}, {"smiles": "COC(=O)c1cc(NC(=O)/C=C/c2ccccc2)ccc1O", "Potency": "inconclusive [activator, single point]"}, {"smiles": "CC1CCN(c2oc(Cc3cccc4ccccc34)nc2C#N)CC1", "Potency": "inconclusive [activator, partial curve]"}, {"smiles": "Cc1ccc(C(=O)CSc2ncnc3ccccc23)o1", "Potency": "active: 3.98 µM"}, {"smiles": "Cc1cc2ccccc2n1CCNC(=O)C1CCCC1", "Potency": "inactive"}, {"smiles": "COc1ccc(C(=O)Nc2ccc3c4c(cccc24)CC3)cc1", "Potency": "inconclusive [activator, single point]"}, {"smiles": "Cc1cc(C)nc(NC(=O)/C=C/c2ccc(Cl)cc2Cl)c1", "Potency": "active: 3.55 µM"}, {"smiles": "COc1ccc(NC(=O)c2sc3ncn(CC(=O)N4CCN(c5ccccn5)CC4)c(=O)c3c2C)c(OC)c1", "Potency": "inactive"}, {"smiles": "Cc1nn2cc(-c3ccc(N)cc3)nc2s1", "Potency": "active: 1 µM"}, {"smiles": "COc1cc(/C=C(\\C#N)c2nc3c(s2)CC(C)CC3)ccc1O", "note": "(stereo unspecified)", "Potency": "inconclusive [activator, partial curve, poor fit]"}, {"smiles": "CNc1nc(-c2ccc3c(c2)CCN3C(=O)c2ccccc2C)cs1", "Potency": "active: 2.24 µM"}, {"smiles": "COCCn1c(C)cc(C2=NNC(=NC(C)(C)C)SC2)c1C", "Potency": "inconclusive [activator, single point]"}, {"smiles": "CCc1nonc1NC(=O)c1oc2ccc(Cl)cc2c1C", "Potency": "inconclusive [activator, partial curve]"}, {"smiles": "O=C(CN(Cc1ccco1)C(=O)Cn1nnc(-c2ccc(F)cc2)n1)NC1CCCC1", "Potency": "inactive"}, {"smiles": "CC(C)NS(=O)(=O)c1ccc(Oc2ncc(C(F)(F)F)cc2Cl)cc1", "Potency": "inactive"}, {"smiles": "CC(=O)c1ccc(NC(=S)N2CCCC(CO)C2)cc1", "note": "(stereo unspecified)", "Potency": "inconclusive [activator, partial curve]"}, {"smiles": "C/C=C/C=C/C(=O)Nc1nccs1", "Potency": "inconclusive [activator, partial curve]"}, {"smiles": "Cc1ccc(NC(=O)CNC(=O)c2ccco2)cc1Cl", "Potency": "inactive"}, {"smiles": "CC(C)c1nc2oc3c(NCCO)ncnc3c2c2c1COC(C)(C)C2", "Potency": "inconclusive [activator, single point]"}, {"smiles": "Cc1c(C(=O)O)cccc1-c1ccc(/C=N/Nc2ccc(Br)cc2)o1", "Potency": "inconclusive [activator, single point]"}, {"smiles": "CCN(C(=O)c1ccco1)c1nnc(-c2cccnc2)s1", "Potency": "inconclusive [activator, partial curve]"}, {"smiles": "CCc1ccc(/C=C2/C(=O)NC(=O)N2C(C)=O)cc1", "Potency": "inactive"}, {"smiles": "Cn1c(SCC(=O)N/N=C/C=C\\c2ccco2)nc2ccccc21", "Potency": "inconclusive [activator, partial curve]"}, {"smiles": "CN1CCC(=O)N([C@H](CSc2ccc(Br)cc2)c2ccccc2)CC1", "Potency": "inconclusive [activator, single point]"}, {"smiles": "CCC1CCCCN1C(=O)COc1ccc(N(C)S(=O)(=O)c2ccc(C)cc2)cc1", "note": "(stereo unspecified)", "Potency": "inactive"}, {"smiles": "O=C(CNS(=O)(=O)c1cccs1)N1CCN(c2ccccc2F)CC1", "Potency": "inconclusive [activator, partial curve]"}, {"smiles": "Cc1ccc(NC(=O)CCNC(=O)Cn2ccc3ccccc3c2=O)cc1F", "Potency": "inconclusive [activator, partial curve]"}, {"smiles": "Cc1ccc(C)c(N2CCN(C(=O)c3ccc(Cn4c(=S)[nH]c5ccc(N6CCOCC6)cc5c4=O)cc3)CC2)c1", "Potency": "inconclusive [activator, partial curve]"}, {"smiles": "CCc1cccc2c(C(=O)COC(=O)c3ccccc3)c[nH]c12", "Potency": "inconclusive [activator, partial curve]"}, {"smiles": "NS(=O)(=O)c1cccc(NC(=O)c2cc3ccccc3o2)c1", "Potency": "inconclusive [activator, single point]"}, {"smiles": "Cc1ccc2[nH]c3c(c2c1)CCN(C)C3", "Potency": "inactive"}, {"smiles": "Cc1nc(NCCOc2ccccc2)sc1C(=O)Nc1ccccc1", "Potency": "inconclusive [activator, single point]"}, {"smiles": "COc1ccc(N=Cc2oc3ccc4ccccc4c3c2O)cc1", "Potency": "active: 3.16 µM"}, {"smiles": "Cc1ccc(S(=O)(=O)Nc2cc3c(C(=O)Nc4ccccc4)c(C)oc3c3ccccc23)cc1", "Potency": "inactive"}, {"smiles": "COC(=O)Cc1ccc(NC(=O)c2cccs2)cc1", "Potency": "active: 2.82 µM"}, {"smiles": "O=[N+]([O-])c1cccc(/C=C/c2ccc3cccc(O)c3n2)c1", "Potency": "inconclusive [activator, single point]"}, {"smiles": "COc1cccc(OCc2cc(C(=O)N(Cc3nccn3C)C(C)C)no2)c1", "Potency": "inactive"}, {"smiles": "O=C(O)c1ccc(Cl)c(S(=O)(=O)N2CCC(Cc3ccccc3)CC2)c1", "Potency": "inactive"}, {"smiles": "Cc1cccc(Cn2cc(SCC(=O)Nc3nccs3)c3ccccc32)c1", "Potency": "inconclusive [activator, single point]"}, {"smiles": "O=C1N=C(N2CCOCC2)S/C1=C/c1cc2c(cc1[N+](=O)[O-])OCO2", "Potency": "inconclusive [activator, single point]"}, {"smiles": "CCOC(=O)N/N=C/C=C/c1ccccc1", "Potency": "inconclusive [activator, single point]"}, {"smiles": "Cc1ccc(C(=O)Nc2ncc(C)s2)o1", "Potency": "active: 3.98 µM"}, {"smiles": "Cc1cccc(NC(=O)c2ccc3c(c2)CCN3S(C)(=O)=O)c1", "Potency": "inconclusive [activator, partial curve]"}, {"smiles": "CCc1nonc1NC(=O)c1oc2cc(C)c(C)cc2c1C", "Potency": "inconclusive [activator, partial curve]"}, {"smiles": "COc1ccc(NC(=O)c2cccs2)cc1", "Potency": "inconclusive [activator, partial curve]"}, {"smiles": "COc1cc2c(cc1OC)CN(Cc1cc(OC)c(O)c(OC)c1)CC2", "Potency": "inconclusive [activator, single point]"}, {"smiles": "Cc1ccc(NC(=O)NC2CCCCC2)cc1Cl", "Potency": "inconclusive [activator, single point]"}, {"smiles": "Nn1c(SCc2ccccc2F)nnc1-c1ccccn1", "Potency": "active: 1.41 µM"}, {"smiles": "Cc1cc(N2CCN(C)CC2)nc2ccc(NC(=O)c3ccccc3F)cc12", "Potency": "inconclusive [activator, single point]"}, {"smiles": "O=C(NCCc1ccc(Cl)cc1)C1CCN(C(=O)N2CCOc3ccccc32)CC1", "Potency": "inactive"}, {"smiles": "Cn1c2ccccc2c(=O)c2cc(C#Cc3ccc(N)cc3)ccc21", "Potency": "inconclusive [activator, single point]"}, {"smiles": "O=c1cc(-c2ccc(O)cc2)oc2ccc3ccccc3c12", "Potency": "inconclusive [activator, single point]"}, {"smiles": "Cc1cccc(NC(=O)Nc2ccc(C)c(C)c2)n1", "Potency": "inconclusive [activator, partial curve]"}, {"smiles": "O=S(=O)(c1ccc(F)c(F)c1)N1CCN(CCc2ccccc2)CC1", "Potency": "inactive"}, {"smiles": "Cc1ccc(C(=O)COC(=O)c2cccs2)cc1", "Potency": "active: 0.447 µM"}, {"smiles": "COc1ccccc1OCCOCCOc1ccc(C)cc1Br", "Potency": "inactive"}, {"smiles": "Cn1c(SCc2ccccn2)nnc1-c1cnccn1", "Potency": "inconclusive [activator, single point]"}, {"smiles": "COc1cccc(/C=N/NC(=O)CCCC(=O)Nc2ccc(Br)cc2)c1", "Potency": "inactive"}, {"smiles": "CC1CCN(C2=NC(=O)/C(=C/c3cn(-c4ccccc4)nc3-c3cccc(S(=O)(=O)N(C)C)c3)S2)CC1", "Potency": "inconclusive [activator, partial curve]"}, {"smiles": "O=C1NC(=O)/C(=C/c2ccc(O)cc2)S1", "Potency": "inconclusive [activator, single point]"}, {"smiles": "CCc1ccc(CNC(=O)C2CCN(S(=O)(=O)N3CCC4(CC3)OCCO4)CC2)cc1", "Potency": "inactive"}, {"smiles": "COc1cccc(NC(=O)NC2CCCCCCC2)c1", "Potency": "inconclusive [activator, partial curve]"}]}]}
